Our source for the cytotoxicity call and growth inhibition call values is the antibiotic and cytotoxicity screens of Wong et al. (2023).

The test system of one assay is HSkMC. The assay can be described thus: cytotoxicity call (relative viability < 0.9). The conditions noted are these: 10 µM.
The next assay deals with HepG2. Kind of assay: cytotoxicity call (relative viability < 0.9). Conditions: 10 µM.
For the next assay, the system named is S. aureus RN4220. Kind of assay: growth inhibition call (relative growth <= 0.2). Conditions: 50 µM.

Each structure is given as a SMILES string. The list shows a part of the results.

Take `O=C(CCc1cn(CC[C@@H]2OC(=O)[C@H](Cc3ccccc3)N3CC4=CC(=O)[C@H](C5CC5)[C@H]4[C@H]23)nn1)NO`: the cytotoxicity call with HSkMC and in the assay with HepG2 was “inactive” each time. Besides, the growth inhibition call with S. aureus RN4220 was “inactive”.

As to `C[C@@H]1CN([C@@H](C)CO)C(=O)c2cc(NC(=O)Nc3cccc4ccccc34)ccc2O[C@@H](C)CCCCO[C@@H]1CN(C)C(=O)CCCN(C)C`, the cytotoxicity call with HSkMC and in the assay with HepG2 was “inactive” throughout. Also, in the assay on S. aureus RN4220, the growth inhibition call is “inactive”.

With `C[C@@H]1CCCCO[C@@H](CN(C)Cc2ccc(C(F)(F)F)cc2)[C@H](C)CN([C@H](C)CO)C(=O)c2cc(NS(=O)(=O)c3cccs3)ccc2O1`, the cytotoxicity call in the assay on HSkMC was “inactive”. Moreover, the cytotoxicity call in the assay with HepG2 was “active”. Also, the growth inhibition call in the assay with S. aureus RN4220 is “inactive”.

Regarding `C[C@@H]1CN([C@@H](C)CO)S(=O)(=O)c2ccc(-c3cccnc3)cc2O[C@H]1CN(C)CC1CCOCC1`, the cytotoxicity call with HSkMC and in the assay with HepG2 was “inactive” throughout. In the assay on S. aureus RN4220, the growth inhibition call is “inactive”.

Consider `C[C@H](CO)N1C[C@H](C)[C@H](CN(C)S(C)(=O)=O)Oc2ccc(NC(=O)CCN3CCOCC3)cc2CC1=O`, for which the cytotoxicity call in the assay on HSkMC (human skeletal muscle cells) and with HepG2 was “inactive” in each case. For the same compound, the growth inhibition call in the assay with S. aureus RN4220 is “inactive”.

In the case of `NCC(=O)CCC(=O)O`, the cytotoxicity call with HSkMC and in the assay with HepG2 was “inactive” throughout. Moreover, the growth inhibition call in the assay with S. aureus RN4220 was “inactive”.

As for `COc1ccccc1C#Cc1cnc2c(c1)C(=O)N([C@H](C)CO)C[C@H](C)[C@@H](CN(C)S(=O)(=O)c1cn(C)cn1)O2`, the cytotoxicity call with HSkMC and in the assay with HepG2 was “inactive” each time. Also, in the assay with S. aureus RN4220, the growth inhibition call was “inactive”.

For the compound `COc1ccc(NC(=O)Nc2ccc3c(c2)C(=O)N([C@H](C)CO)C[C@@H](C)[C@H](CN(C)C(=O)Nc2cccc4ccccc24)O3)cc1`, the cytotoxicity call with HSkMC and in the assay on HepG2 was “inactive” throughout. Moreover, in the assay on S. aureus RN4220, the growth inhibition call was “inactive”.

With `O=C(N[C@@H]1CC[C@@H](CCNS(=O)(=O)c2ccccc2)O[C@@H]1CO)c1cnccn1`, the cytotoxicity call with HSkMC and in the assay on HepG2 was “inactive” each time. Further, the growth inhibition call in the assay on S. aureus RN4220 is “inactive”.

Regarding `COc1ccc(C#Cc2cnc3c(c2)C(=O)N([C@@H](C)CO)C[C@H](C)[C@@H](CN(C)C(=O)CC2CC2)O3)cc1`, the cytotoxicity call with HSkMC and in the assay on HepG2 was “inactive” in each case. In addition, the growth inhibition call with S. aureus RN4220 is “inactive”.

`O=C(C[C@@H]1CC[C@H]2[C@@H](COC[C@@H](O)CN2C(=O)c2ccc(F)cc2)O1)NCCCN1CCOCC1`: the cytotoxicity call with HSkMC and in the assay with HepG2 was “inactive” throughout. Besides, in the assay with S. aureus RN4220, the growth inhibition call is “inactive”.

Consider `C[C@H]1CN([C@@H](C)CO)C(=O)c2cccc(NC(=O)Nc3ccc(F)cc3)c2O[C@H]1CN(C)C(=O)Nc1ccc(C(F)(F)F)cc1`, for which the cytotoxicity call in the assay with HSkMC and in the assay with HepG2 was “inactive” throughout. Further, the growth inhibition call with S. aureus RN4220 was “inactive”.

On to `CN(C)CC(=O)N1CC(=O)N2[C@H](CO)[C@H](c3ccc(C#Cc4cccnc4)cc3)[C@H]2C1`, for which the cytotoxicity call with HSkMC and in the assay with HepG2 was “inactive” in each case. For the same compound, in the assay on S. aureus RN4220, the growth inhibition call was “inactive”.
